Some of these densities may be calculated back from excess volumes.
Experiment: xn = mol fraction of the nth substance listed
Details: 100 kPa

C[C@H](N)C(=O)[O-].C[N+](C)(C)CCO + O
mass density [kg/m3]
Details	x1 = 0.097	x1 = 0.198	x1 = 0.294	x1 = 0.495	x1 = 0.597	x1 = 0.692	x1 = 0.799	x1 = 0.899	x1 = 1
293.15 K	1079.9	–	1119.4	1125.7	1126.8	1127.8	1128.4	1127.5	1128.2
298.15 K	1077.4	1106.8	1116.5	–	1123.9	1124.9	1125.5	1124.6	1125.2
303.15 K	1074.8	–	1113.6	1119.9	1120.9	–	1122.5	1121.7	1122.3

— a compilation of properties of binary mixtures (doi:10.1021/acs.jced.3c00247)
